Data from patent US20080160035A1 (Regeneron, published 2008).

Key:
Assay in all cases: ELISA solution competition; antigen titrated against fixed antibody, free antibody caught on hIL-4R-hFc plate
[1] = target: T1, VAB 7B9-3
T1 construct: Apparently tested with mouse constant region (anti-mouse IgG capture/detection)

[2] = target: T2, VX 4E7-9
T2 construct: 387/389; Apparently tested with mouse constant region (anti-mouse IgG capture/detection)

[3] = target: T3, VAB 4D5-3
T3 construct: Apparently tested with mouse constant region (anti-mouse IgG capture/detection)
T3 sequence (VH, as listed by the source, chain 1 of 2): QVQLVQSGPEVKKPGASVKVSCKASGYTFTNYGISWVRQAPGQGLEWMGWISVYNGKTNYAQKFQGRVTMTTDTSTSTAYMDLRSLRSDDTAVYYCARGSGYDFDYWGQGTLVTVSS
T3 sequence (VL, as listed by the source, chain 2 of 2): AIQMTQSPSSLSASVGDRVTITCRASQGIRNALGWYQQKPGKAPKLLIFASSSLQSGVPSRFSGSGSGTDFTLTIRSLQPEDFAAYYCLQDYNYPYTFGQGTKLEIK

[4] = target: T4, VAB 16F3-1
T4 construct: Apparently tested with mouse constant region (anti-mouse IgG capture/detection)
T4 sequence (VH, as listed by the source, chain 1 of 2): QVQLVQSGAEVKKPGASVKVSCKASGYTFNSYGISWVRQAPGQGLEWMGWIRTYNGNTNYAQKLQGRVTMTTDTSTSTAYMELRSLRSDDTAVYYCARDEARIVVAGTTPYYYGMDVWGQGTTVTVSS
T4 sequence (V domain, as listed by the source, chain 2 of 2): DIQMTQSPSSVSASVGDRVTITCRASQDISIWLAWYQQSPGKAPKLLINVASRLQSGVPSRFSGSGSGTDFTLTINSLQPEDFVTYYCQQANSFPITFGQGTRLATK

[5] = target: T5, VAB 10G8-19
T5 construct: Apparently tested with mouse constant region (anti-mouse IgG capture/detection)
T5 sequence (VH, as listed by the source, chain 1 of 2): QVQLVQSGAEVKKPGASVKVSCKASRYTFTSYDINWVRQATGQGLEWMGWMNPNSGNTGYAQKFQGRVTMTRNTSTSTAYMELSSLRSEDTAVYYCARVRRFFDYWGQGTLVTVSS
T5 sequence (VL, as listed by the source, chain 2 of 2): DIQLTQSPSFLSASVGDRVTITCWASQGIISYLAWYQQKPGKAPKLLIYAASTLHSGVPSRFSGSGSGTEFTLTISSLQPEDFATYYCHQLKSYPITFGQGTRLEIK

[6] = target: T6, VAK7G8-5
T6 construct: Apparently tested with mouse constant region (anti-mouse IgG capture/detection)
T6 sequence (VH, as listed by the source, chain 1 of 2): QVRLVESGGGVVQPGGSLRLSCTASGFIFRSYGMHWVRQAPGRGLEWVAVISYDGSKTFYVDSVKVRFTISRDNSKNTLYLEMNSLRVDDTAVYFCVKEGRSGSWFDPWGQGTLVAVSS
T6 sequence (VL, as listed by the source, chain 2 of 2): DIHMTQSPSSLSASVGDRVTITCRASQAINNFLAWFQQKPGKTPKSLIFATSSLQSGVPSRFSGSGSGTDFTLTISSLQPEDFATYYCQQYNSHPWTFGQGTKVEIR

[7] = target: T7, VAK5H4-4
T7 construct: Apparently tested with mouse constant region (anti-mouse IgG capture/detection)
T7 sequence (VH, as listed by the source, chain 1 of 2): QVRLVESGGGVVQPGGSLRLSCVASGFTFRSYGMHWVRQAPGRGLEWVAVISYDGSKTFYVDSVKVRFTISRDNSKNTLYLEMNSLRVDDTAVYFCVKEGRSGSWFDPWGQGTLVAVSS
T7 sequence (VL, as listed by the source, chain 2 of 2): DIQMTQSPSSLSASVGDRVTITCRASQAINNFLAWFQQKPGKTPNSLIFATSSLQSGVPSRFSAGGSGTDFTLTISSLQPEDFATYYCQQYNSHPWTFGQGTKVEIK

[8] = target: T8, VAB 8G10-1
T8 construct: Apparently tested with mouse constant region (anti-mouse IgG capture/detection)

[9] = target: T9, VAB 1H1-2
T9 construct: Apparently tested with mouse constant region (anti-mouse IgG capture/detection)

[10] = target: T10, VAB 5C5-11
T10 construct: Apparently tested with mouse constant region (anti-mouse IgG capture/detection)
T10 sequence (VH, as listed by the source, chain 1 of 2): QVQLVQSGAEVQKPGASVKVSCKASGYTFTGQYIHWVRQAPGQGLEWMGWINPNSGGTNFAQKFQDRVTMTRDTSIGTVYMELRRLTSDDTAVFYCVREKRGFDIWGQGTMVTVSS
T10 sequence (VL, as listed by the source, chain 2 of 2): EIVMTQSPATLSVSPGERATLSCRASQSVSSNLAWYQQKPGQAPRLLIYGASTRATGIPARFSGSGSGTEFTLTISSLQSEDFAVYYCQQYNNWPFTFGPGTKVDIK

[11] = target: T11, VAK10G6-7
T11 construct: Apparently tested with mouse constant region (anti-mouse IgG capture/detection)
T11 sequence (VH, as listed by the source, chain 1 of 2): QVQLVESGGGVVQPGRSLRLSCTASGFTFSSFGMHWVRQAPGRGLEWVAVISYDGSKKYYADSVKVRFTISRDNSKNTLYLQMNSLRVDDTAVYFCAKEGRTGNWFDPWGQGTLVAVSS
T11 sequence (VL, as listed by the source, chain 2 of 2): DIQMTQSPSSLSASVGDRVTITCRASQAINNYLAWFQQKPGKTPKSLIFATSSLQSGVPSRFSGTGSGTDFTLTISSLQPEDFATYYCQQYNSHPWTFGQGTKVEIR

[12] = target: T12, VAK10G12-5
T12 construct: Apparently tested with mouse constant region (anti-mouse IgG capture/detection)
T12 sequence (VH, as listed by the source, chain 1 of 2): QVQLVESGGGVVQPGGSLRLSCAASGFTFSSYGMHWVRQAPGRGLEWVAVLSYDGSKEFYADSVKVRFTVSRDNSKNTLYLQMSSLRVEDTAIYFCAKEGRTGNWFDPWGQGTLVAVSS
T12 sequence (VL, as listed by the source, chain 2 of 2): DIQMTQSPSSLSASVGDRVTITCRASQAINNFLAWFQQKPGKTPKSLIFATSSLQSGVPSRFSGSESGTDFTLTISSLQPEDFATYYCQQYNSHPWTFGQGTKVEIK

[13] = target: T13, VX 3F7-6
T13 construct: 395/397; 399/401 without saying which was assayed; Apparently tested with mouse constant region (anti-mouse IgG capture/detection)
T13 sequence (VH, as listed by the source, chain 1 of 2): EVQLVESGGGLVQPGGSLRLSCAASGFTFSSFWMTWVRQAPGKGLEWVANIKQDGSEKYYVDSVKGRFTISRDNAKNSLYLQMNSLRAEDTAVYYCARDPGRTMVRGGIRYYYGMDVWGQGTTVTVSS
T13 sequence (VL, as listed by the source, chain 2 of 2): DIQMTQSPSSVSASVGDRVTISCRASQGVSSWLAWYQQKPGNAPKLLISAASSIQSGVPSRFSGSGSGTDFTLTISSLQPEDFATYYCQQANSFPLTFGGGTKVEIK

[14] = target: T14, VAK9C6-11
T14 construct: Apparently tested with mouse constant region (anti-mouse IgG capture/detection)
T14 sequence (VH, as listed by the source, chain 1 of 2): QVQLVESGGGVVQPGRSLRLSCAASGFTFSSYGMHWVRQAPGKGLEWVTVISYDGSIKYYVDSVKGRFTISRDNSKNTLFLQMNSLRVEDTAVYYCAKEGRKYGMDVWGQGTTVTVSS
T14 sequence (VL, as listed by the source, chain 2 of 2): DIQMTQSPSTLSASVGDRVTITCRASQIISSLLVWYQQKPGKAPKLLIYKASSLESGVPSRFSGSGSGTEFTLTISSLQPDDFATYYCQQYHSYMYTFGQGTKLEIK

[15] = target: T15, Control: a fully human anti-IL-4R antibody (U.S. Pat. No. 7,186,809; SEQ ID NOs:10 and 12)
T15 construct: Fully human antibody; also called control antibody; control anti-hIL-4R antibody

[16] = target: T16, VAB 11G8-1
T16 construct: Apparently tested with mouse constant region (anti-mouse IgG capture/detection)

[17] = target: T17, VAB 16G1-1
T17 construct: 403/405; 407/409 without saying which was assayed; Apparently tested with mouse constant region (anti-mouse IgG capture/detection)
T17 sequence (VH, as listed by the source, chain 1 of 2): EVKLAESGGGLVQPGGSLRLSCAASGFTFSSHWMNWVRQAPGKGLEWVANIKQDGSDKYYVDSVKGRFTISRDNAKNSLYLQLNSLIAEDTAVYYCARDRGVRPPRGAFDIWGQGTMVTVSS
T17 sequence (VL, as listed by the source, chain 2 of 2): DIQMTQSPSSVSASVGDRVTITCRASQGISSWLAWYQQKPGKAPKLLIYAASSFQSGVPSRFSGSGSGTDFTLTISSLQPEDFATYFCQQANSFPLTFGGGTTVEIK

[18] = target: T18, VAB 3B4-10
T18 construct: Apparently tested with mouse constant region (anti-mouse IgG capture/detection)
T18 sequence (VH, as listed by the source, chain 1 of 2): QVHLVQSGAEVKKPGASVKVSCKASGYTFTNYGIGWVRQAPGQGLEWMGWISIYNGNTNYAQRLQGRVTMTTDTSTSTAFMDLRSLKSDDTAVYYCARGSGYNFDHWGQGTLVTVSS
T18 sequence (V domain, as listed by the source, chain 2 of 2): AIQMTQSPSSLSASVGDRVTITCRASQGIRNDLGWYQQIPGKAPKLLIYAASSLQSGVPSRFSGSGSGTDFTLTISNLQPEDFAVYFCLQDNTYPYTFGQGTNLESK

[19] = target: T19, VAK11D4-1
T19 construct: Apparently tested with mouse constant region (anti-mouse IgG capture/detection)
T19 sequence (VH, as listed by the source, chain 1 of 2): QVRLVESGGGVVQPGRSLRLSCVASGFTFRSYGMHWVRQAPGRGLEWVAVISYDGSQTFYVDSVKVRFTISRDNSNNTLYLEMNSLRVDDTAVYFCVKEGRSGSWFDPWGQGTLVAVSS
T19 sequence (VL, as listed by the source, chain 2 of 2): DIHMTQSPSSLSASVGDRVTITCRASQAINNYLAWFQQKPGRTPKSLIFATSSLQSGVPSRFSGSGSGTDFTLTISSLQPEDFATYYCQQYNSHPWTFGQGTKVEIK

[20] = target: T20, VAK8G11-13
T20 construct: Apparently tested with mouse constant region (anti-mouse IgG capture/detection)
T20 sequence (VH, as listed by the source, chain 1 of 2): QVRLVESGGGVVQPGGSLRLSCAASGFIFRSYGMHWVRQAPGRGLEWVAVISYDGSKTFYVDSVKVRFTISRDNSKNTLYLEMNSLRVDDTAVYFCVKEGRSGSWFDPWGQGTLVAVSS
T20 sequence (VL, as listed by the source, chain 2 of 2): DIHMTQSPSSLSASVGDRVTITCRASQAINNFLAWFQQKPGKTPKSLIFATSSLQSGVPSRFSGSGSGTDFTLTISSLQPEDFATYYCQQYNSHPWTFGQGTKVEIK

[21] = target: T21, VAB 6C10-14
T21 construct: Apparently tested with mouse constant region (anti-mouse IgG capture/detection)
T21 sequence (VH, as listed by the source, chain 1 of 2): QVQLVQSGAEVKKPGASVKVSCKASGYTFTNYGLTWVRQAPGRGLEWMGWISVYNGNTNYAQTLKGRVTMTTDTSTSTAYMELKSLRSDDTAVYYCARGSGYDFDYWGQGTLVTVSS
T21 sequence (VL, as listed by the source, chain 2 of 2): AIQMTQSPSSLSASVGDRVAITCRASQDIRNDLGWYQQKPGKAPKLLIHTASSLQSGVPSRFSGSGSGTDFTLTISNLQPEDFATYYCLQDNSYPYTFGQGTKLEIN

[22] = target: T22, VAB 10C1-5
T22 construct: Apparently tested with mouse constant region (anti-mouse IgG capture/detection)
T22 sequence (VH, as listed by the source, chain 1 of 2): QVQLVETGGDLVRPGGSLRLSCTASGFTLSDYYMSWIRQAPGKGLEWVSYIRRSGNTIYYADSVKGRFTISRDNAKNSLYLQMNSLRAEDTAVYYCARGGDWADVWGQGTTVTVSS
T22 sequence (VL, as listed by the source, chain 2 of 2): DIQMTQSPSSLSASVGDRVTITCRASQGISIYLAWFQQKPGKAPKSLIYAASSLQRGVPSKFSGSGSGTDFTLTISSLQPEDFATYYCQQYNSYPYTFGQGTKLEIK

[23] = target: T23, VAK12B11-9
T23 construct: Apparently tested with mouse constant region (anti-mouse IgG capture/detection)

[24] = target: T24, VAB 15C8-17
T24 construct: Apparently tested with mouse constant region (anti-mouse IgG capture/detection)

T2 sequence (VH, as listed by the source, chain 1 of 2): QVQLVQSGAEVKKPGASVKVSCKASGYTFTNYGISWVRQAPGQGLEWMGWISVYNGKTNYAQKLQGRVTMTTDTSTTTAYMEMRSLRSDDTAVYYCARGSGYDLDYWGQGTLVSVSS
T2 sequence (VL, as listed by the source, chain 2 of 2): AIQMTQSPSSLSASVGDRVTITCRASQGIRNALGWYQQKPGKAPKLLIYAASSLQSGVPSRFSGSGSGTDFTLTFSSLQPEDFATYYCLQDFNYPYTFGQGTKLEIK
T1 sequence (VH, as listed by the source, chain 1 of 2): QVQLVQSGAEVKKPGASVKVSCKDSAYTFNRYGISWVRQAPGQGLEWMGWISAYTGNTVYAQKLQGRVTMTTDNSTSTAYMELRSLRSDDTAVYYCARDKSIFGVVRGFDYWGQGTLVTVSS
T1 sequence (VL, as listed by the source, chain 2 of 2): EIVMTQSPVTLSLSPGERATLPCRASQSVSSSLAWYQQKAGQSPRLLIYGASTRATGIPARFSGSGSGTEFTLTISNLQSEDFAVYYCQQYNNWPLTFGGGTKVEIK

B1: monomeric hIL-4R (R&D Systems) (receptor)
chain: not shown
notes: Bought (R&D Systems); also called hIL-4R monomer
IC50 [1]: 2.98 nM | IC50 [2]: 0.175 nM | IC50 [3]: 0.285 nM | IC50 [4]: 7 pM | IC50 [5]: 0.089 nM | IC50 [6]: 0.092 nM | IC50 [7]: 0.13 nM | IC50 [8]: 0.517 nM | IC50 [9]: 0.779 nM | IC50 [10]: 5.22 nM | IC50 [11]: 0.165 nM | IC50 [12]: 0.169 nM | IC50 [13]: 2.9 nM | IC50 [14]: 1.4 nM | IC50 [15]: 3.5 nM | IC50 [16]: 0.473 nM | IC50 [17]: 0.595 nM | IC50 [18]: 0.336 nM | IC50 [19]: 0.109 nM | IC50 [20]: 0.103 nM | IC50 [21]: 0.489 nM | IC50 [22]: 12.9 nM | IC50 [23]: 0.325 nM | IC50 [24]: 0.418 nM
